Experimental data taken from PubChem BioAssay AID602332 (National Center for Advancing Translational Sciences (NCATS), 2012).
“And” between values parts separate entries of the source, which are not always exact repeats. Equal entries are not always repeated. The whole screen tested about 420,000 compounds, of which about 75 (0.02%) were called active. Calls follow the shape of the dose curve; as a rule, active = well fitted activation curve with a large enough effect; inconclusive = small, poorly fitted or top-dose-only effect; inactive = no such curve, though single readings can be large or run the other way. Only a part is listed here, and it is no random draw. A structure can be active in one record and inactive in another.

experiment: qHTS for Inducers of the Endoplasmic Reticulum Stress Response (ERSR) in Human Glioma: qHTS; conditions: U87-MG GRP78 promoter luciferase reporter, 16 h; activation: hits give high values; also: nearly all actives have a fitted effect of over 35% in size; as to activation: % of control where 0% means no effect
Text: Primary protein unfolding takes place for many diseases, including diabetes and hypoxia, , and triggers a reaction in the cells called ER stress response (ERSR). ). ERSR is designed as a repair mechanism, but ultimately leads to cell death via apoptosis if conditions triggering protein unfolding persist (1). The molecular clue to ERSR activation is the enhancement of the expression of key molecular chaperones, including the glucose regulated protein (GRP) 78. GRP78 is the main sensor for protein folding and the main actuator of the ERSR.
In a collaboration between the Southern Research Institute and the NIH Chemical Genomics Center, a cell based screen was developed that reliably uses GRP78 as a sensor to identify small molecules as inducers of ERSR. In resting conditions, GRP78 binds proteins and acts as a natural repressor. Once unfolded proteins are present in the ER, GRP78 releases some of the repressors and binds to the unfolded proteins. The release of the repressors executes the ERSR program. Using a human glioma cell line in a miniaturized, luminescent format, a high-throughput screen was developed to identify actuators of the ERSR.
(1) Soboloff, J. and S. A. Berger (2002). "Sustained ER Ca2+ depletion suppresses protein synthesis and induces activation-enhanced cell death in mast cells." J Biol Chem 277(16): 13812-20.
NIH Chemical Genomics Center [NCGC]
NIH Molecular Libraries Probe Centers Network [MLPCN]
Assay Submitter (PI): Maurizio Grimaldi, Southern Research Institute
Stable transfected human glioma cell line, U87-MG, are dispensed at density 1000 cells/well into Greiner white solid bottom 1536-well assay plates. Compounds are transferred via Kalypsys pin tool equipped with 1536-pin array (10nl slotted pins, V&P Scientific, San Diego, CA). The assay plates will be incubated for 16 hours and developed by adding appropriate quantities of the Promega Bright Glo reagent. The plates will be incubated at room temperature for 10 minutes prior to being transferred into a ViewLux high-throughput CCD imager (PerkinElmer), wherein end-point measurements of luminescence are acquired.
Potency is read from the fitted curve at half-maximal effect.

Row | Compound | activation | Potency
1 | CNc1ccc2oc(C[C@@H]3OC4(CC[C@@H]3C)O[C@H]([C@@H](C)C(=O)c3ccc[nH]3)[C@H](C)C[C@H]4C)nc2c1C(=O)O (stereo partly specified) | inactive: 7.2% and inactive: 11.7% | –
2 | Cc1ccc2c(Cl)cc(Cl)c(O)c2n1 | inactive: -5.87% | –
3 | N#C/C(=C\c1ccc(O)c(O)c1)C(=O)NCCCNC(=O)/C(C#N)=C/c1ccc(O)c(O)c1 | – | active: 36.9 µM
4 | Clc1ccc(C(c2ccc(Cl)cc2)n2cc[n+](CC(OCc3ccc(Cl)cc3Cl)c3ccc(Cl)cc3Cl)c2)cc1 (stereo unspecified) | inactive: -11.6% [middle of 4 runs] | –
5 | C/C1=C/C(=O)O[C@@H]2C[C@@H](CC[C@H](C)/C=C\CC1)O[C@@](O)(C1CSC(=O)N1)C2 (stereo partly specified) | inactive: -3.78% | –
6 | C/C(O)=C(\C#N)C(=O)Nc1cc(Br)ccc1Br | inactive: -0.191% and inactive: -1.45% and inactive: 3.56% | –
7 | O=c1cc(-c2ccc(O)c(O)c2)oc2cc(O)cc(O)c12 | inactive: 7.7% [middle of 4 runs] | –
8 | COc1ccc(OC)c(C(O)C(C)N)c1 (stereo unspecified) | inactive: -3.39% and inactive: -2.17% | –
9 | Cc1c(C(=O)c2cccc3ccccc23)c2cccc3c2n1[C@@H](CN1CCOCC1)CO3 | inactive: -6.88% | –
10 | O=C1C2CCN(CC2)C1(CO)CO | inactive: -11.8% [middle of 5 runs] | –
11 | CN[C@@H]1C[C@H](c2ccc(Cl)c(Cl)c2)c2ccccc21 | inactive: -8.17% | –
12 | CC(=O)Nc1ccc(OC(=O)N2CCCCC2)cc1 | inactive: -13.5% | –
13 | CCn1cnc2c(Nc3cccc(Cl)c3)nc(N[C@@H]3CCCC[C@@H]3N)nc21 | inactive: -14.8% | –
14 | C[C@@H](COc1ccccc1)N(CCCl)Cc1ccccc1 | inactive: -3.86% | –
15 | C[C@@H]1C(=O)OC2C[C@@]34[C@H]5C[C@@H](C(C)(C)C)[C@@]36C(O)C(=O)O[C@H]6O[C@@]4(C(=O)O5)[C@]21O (stereo partly specified) | inactive: -2.29% | –
16 | CC(=O)[O][Hg][c]1ccccc1 | inactive: -12.8% | –
17 | O=c1[nH]c2ccccc2n1C1CCN(CCCC(c2ccc(F)cc2)c2ccc(F)cc2)CC1 | inactive: -5.78% [middle of 7 runs] | –
18 | CC1=C(O)C(=O)[C@H]2O[C@@H]2C1=O | inactive: -11.6% | –
19 | Cc1nc2cc(-c3ccccc3)nn2c(C)c1CCC(=O)N1CCC2(CC1)OCCO2 | inactive: -12.3% | –
20 | Nc1cc(Cl)c2nonc2c1[N+](=O)[O-] | inactive: -15.5% | –
21 | O=C(O)c1ccccc1Nc1cccc(C(F)(F)F)c1 | inactive: 1.26% [middle of 4 runs] | –
